Target: T1, androgen receptor (AR), full-length, human (human, UniProt P10275 1-920)
T1 construct: also called wtAR; full length AR
T1 sequence: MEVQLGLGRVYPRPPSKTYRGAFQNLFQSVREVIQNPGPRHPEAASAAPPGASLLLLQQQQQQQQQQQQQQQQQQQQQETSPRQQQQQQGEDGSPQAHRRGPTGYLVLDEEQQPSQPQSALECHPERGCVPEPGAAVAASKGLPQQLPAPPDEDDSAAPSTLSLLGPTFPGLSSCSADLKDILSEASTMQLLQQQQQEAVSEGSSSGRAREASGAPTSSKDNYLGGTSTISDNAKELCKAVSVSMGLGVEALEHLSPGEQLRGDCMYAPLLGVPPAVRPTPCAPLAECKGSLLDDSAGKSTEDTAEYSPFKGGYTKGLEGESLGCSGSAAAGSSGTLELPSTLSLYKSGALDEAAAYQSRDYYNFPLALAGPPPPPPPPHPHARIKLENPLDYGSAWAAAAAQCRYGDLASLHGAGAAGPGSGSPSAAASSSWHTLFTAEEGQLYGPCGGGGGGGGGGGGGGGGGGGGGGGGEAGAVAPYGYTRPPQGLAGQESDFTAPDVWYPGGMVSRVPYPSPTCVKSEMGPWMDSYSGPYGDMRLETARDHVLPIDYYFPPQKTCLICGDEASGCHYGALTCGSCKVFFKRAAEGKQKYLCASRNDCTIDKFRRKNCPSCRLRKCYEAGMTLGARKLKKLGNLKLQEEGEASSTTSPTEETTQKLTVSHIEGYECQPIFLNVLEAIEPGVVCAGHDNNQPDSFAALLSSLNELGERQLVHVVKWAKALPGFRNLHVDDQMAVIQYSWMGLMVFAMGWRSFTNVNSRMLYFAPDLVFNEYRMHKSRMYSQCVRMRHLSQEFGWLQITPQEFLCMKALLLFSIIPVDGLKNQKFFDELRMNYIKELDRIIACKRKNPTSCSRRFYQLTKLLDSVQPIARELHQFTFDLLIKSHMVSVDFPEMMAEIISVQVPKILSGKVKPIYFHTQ
Assay: GST pull-down, Western blot with anti-AR NH27

- binding result: no binding
B1: GST alone (other)
chain: not shown
notes: Control

Source: patent US20060270591A1 (published 2006)
